Measured values published in PubChem BioAssay AID493208 (National Center for Advancing Translational Sciences (NCATS), 2011).
Among all 44,000 compounds or so, about 340 (0.77%) were called active. About 5% were inconclusive and are not listed. Calls follow the shape of the dose curve; as a rule, active = well fitted inhibition curve with a large enough effect; inconclusive = small, poorly fitted or top-dose-only effect; inactive = flat fitted curve, though single readings scatter. Some of the results follow.

Experiment: Acumen qHTS Assay for Inhibitors of the mTORC1 Signaling Pathway in MEF (Tsc2-/-, p53-/-) Cells: Sytravon;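 also: plate controls were DMSO for no effect and rapamycin for full effect; nearly all actives have a fitted effect of over 50% in size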
Details: phospho-rpS6 immunofluorescence/PI, 24 h; series mostly up to 38.3 µM; activity change, negative = inhibition: at the top concentration
How it was run: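 Tsc2-/-, p53-/- mouse embryonic fibroblasts (empty-vector line) exposed to compound 24 hrs at 37 C, fixed, immunostained for phospho-rpS6 and counterstained with propidium iodide. Acumen laser scanning gives % positive cells from Alexa 488/PI ratio, thresholded using 7.5 nM rapamycin; PI count gives viability.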

Activity change, negative = inhibition, inactive:
CCC1CN(C(=O)Nc2ccc(C)c(F)c2)c2ccccc2S1 (stereo not given) 0.614%
CCOc1ccc(-c2nnc(SCC(=O)NCc3ccccc3)o2)cc1 0.917%
O=C1CN(C(=O)c2ccc(S(=O)(=O)N3CCCC3)cc2)C(c2ccccc2)c2cc(Br)ccc2N1 (stereo not given) -7.31%
Cc1ccc(NC(=O)CN2CCSc3ccc(S(=O)(=O)N4CCCC4)cc32)cc1C -1.1%
CC(C)(C)C(=O)NC1(C(F)(F)F)C(=O)Nc2c1c(=O)[nH]c(=O)n2-c1ccccc1 (stereo not given) -12.9%
CCOc1ccc(-n2nc3cc(C)c(NC(=O)c4cc(OCC)c(OCC)c(OCC)c4)cc3n2)cc1 0.475%
COc1cc(OC)c(NS(=O)(=O)c2cc(-c3cnc(C4CC4)o3)ccc2C)cc1Cl 0%
Cc1nnc(N2CCC(C(=O)NCCc3ccccc3)CC2)c2nn(-c3ccc(Cl)cc3)c(C)c12 3.14%
CCN(CC)c1ccc(NC(=O)c2sc3nc4c(cc3c2N)CN(C)CC4)cc1 -1.03%
CCn1c(C(=O)N2CCCC(C(=O)N3CCN(c4cc(C)ccc4C)CC3)C2)cc2sccc21 (stereo not given) 1.21%
COc1cc(OC)c(OC)cc1CNc1sc2c(c1C(=O)Nc1ccccc1OC)CCC2 -20.7%
O=C(Nc1ccc2nc(SCC(=O)N3CCc4ccccc43)sc2c1)c1cccc(Cl)c1 -8.77%
CN(C(=O)CCS(=O)(=O)c1cc2c(cc1Cl)NC(=O)CO2)C1CCCCC1 -0.369%
Cc1ccc(CCNC(=O)CCS(=O)(=O)c2cc3c(cc2C)NC(=O)CO3)cc1 -0.388%
Cc1nncn1-c1ccc(C(=O)Nc2cc(F)ccc2F)cc1 -0.0669%
COc1ccc(NC(=O)CSc2nc3nc(C)c(Cc4ccccc4Cl)c(C)n3n2)cc1OC 12.4%
COc1ccc(C)cc1NS(=O)(=O)c1cc2c3c(c1)CC(=O)N3CCC2 2.65%
CCn1c(=N)c(C(=O)NC2CCCCC2)cc2c(=O)n3cc(C)ccc3nc21 -0.368%
Cc1ccccc1CCNC(=O)c1cc2cc(S(=O)(=O)N3CCCCC3)ccc2n1C -11.8%
COc1ccc(-n2c(=O)c3ccccc3n(CC(=O)NCCc3ccc(OC)c(OC)c3)c2=O)cc1 -3.86%
COc1cc2c(cc1OC)C(COc1cc(C)cc(C)c1)N(C(=O)COc1ccccc1)CC2 (stereo not given) -15.5%
COc1ccc(NC(=O)c2cc3c(=O)n(Cc4cccnc4)ccc3nc2C)cc1OC -2.37%
COc1ccc(Cl)cc1NC(=O)CCCN1C(=O)C(c2ccccc2)Oc2cccnc21 (stereo not given) -21.3%
CCOCCCN(Cc1ccco1)S(=O)(=O)c1cc2c(cc1C)NC(=O)CO2 9.46%
COc1ccc(-n2ncc(C(=O)Nc3cccc(C(F)(F)F)c3)c2C2CCN(C(=O)OC(C)(C)C)CC2)cc1 -3.4%
